{"source": "the RNAGym collection of RNA variant scans (doi:10.1093/nar/gkz1192)", "parents": {"B1": {"name": "CPEB3 Ribozyme (parent)", "chain": "UAACAGGGGGCCACAGCAGAAGCGUUCACGUCGCAGCCCCUGUCAGAUUCUGGUGAAUCUGCGAAUUCUGCUGUAUAUCUC"}}, "note": "Read counts are not given, so values of variants with three or more changes are uncertain."}
{"variants_of": "B1", "test": "self-cleavage, relative activity (ratio to wild type); higher = more cleavage; in vitro, sequencing", "method_in_brief": "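Libraries of CPEB3 self-cleaving ribozyme mutants came from rounds of error-prone PCR and carried barcodes, which DNA sequencing matched to variants. In vitro transcription used T7 RNA polymerase at 37°C for 5 hours, with a further 15 min in DNase I before EDTA stopped the reaction; the ribozymes cleaved during both steps. The RNA was reverse transcribed with template switching and sequenced on Illumina. Relative activity is the cleaved/total read fraction of a variant divided by that of the unmutated ribozyme, averaged over three batches with at least 5 reads.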"}
{"variant": "UAACAGGAGGCCACAGCAGAAGCGUUCUCGUCGCAGCCCCAGUCAGAUUCUGGUGAAUCUGCGAAUUCUGCUGUAUAUCUC", "self-cleavage": 0.06}
{"variant": "UAACAGGAGGCCACAGCAGAAGCGUUCACGUCGCGGCCCCUAUCAGAUUCUGGUGAAUCUGCGAAUUCGGCCGUAUAUCUC", "self-cleavage": 0.07}
{"variant": "UAACAGGAGGCCACAGCAGAAGCGUUCACGUCGCGGCCCCUGUCAGACUCUGGCGAAUCUGCGAAUUCUGCUGUUUAUCUC", "self-cleavage": 0.09}
{"variant": "UAACAGGAGGCCACAGCAGAAGCGUUCACGUCGCUGCCCCUGUCGGAUUCAGGUGAACCUGCGAAUUCUGGUGUAUAUCUC", "self-cleavage": 0.08}
{"variant": "UAACAGGAGGCCACAGCAGAAGCGUUCACGUCGCUGCCCCAGUCAGAUUCUGGAGAAUCUGCGAAUUCUGCUGUAUAUCUC", "self-cleavage": 0.09}
{"variant": "UAACAGGAGGCCACAGCAGAAGCGUUCACGUCGCUGCCCCUGCCCGAUUCUGGUGAAUCUGCGAAUUCUGCUGUAUAUCUC", "self-cleavage": 0.14}
{"variant": "UAACAGGAGGCCACAGCAGAAGCGUUCACGUCGCUGCCCCUGUCAGAUCCUGGUGAACCUGCGAAUUCUGCCGUAUAUCUC", "self-cleavage": 0.07}
{"variant": "UAACAGGAGGCCACAGCAGAAGCGUUCACGUCGCUGCCCCUGUCAGAUUCUGGCGAAUCUGCGAACUCUGCUGUAUAUCUC", "self-cleavage": 0.12}
{"variant": "UAACAGGAGGCCACAGCAGAAGCGUUCACGUCGCUGCCCCUGUCAGAUUCUGGCGAAUCUGCGAAUCCUGCUGUAUAUCUC", "self-cleavage": 0.06}
{"variant": "UAACAGGAGGCCACAGCAGAAGCGUUCACGUCGCAGCCCCUGUCCGGUUCUAGGGAAUCUGCGAAUCCUGCUGUAUAUAUC", "self-cleavage": 0.15}
{"variant": "UAACAGGAGGCCACAGCAGAAGCGUUCACGUCGCAGCCCCUGUCGGAUUCUGGUGGAUCUGCGAAUCCUGCUGUAUAUCUC", "self-cleavage": 0.2}
{"variant": "UAACAGGAGGCCACAGCAGAAGCGUUCACGUCGCAGCCCCUGUCGGAUUCUGGUGAAUCUGCGAAUUCUGCUGUUUAUCCC", "self-cleavage": 0.07}
{"variant": "UAACAGGAGGCCACAGCAGAAGCGUUCACGUCGCAGCCCCUGUCUGAUCCUGGUGAACCUGCGAAUUCAGCUGUAUAUCUC", "self-cleavage": 0.07}
{"variant": "UAACAGGAGGCCACAGCAGAAGCGUUCACGUCGCAGCCCCUGUCUGAUCCUGGUGAAUCCGCGUAUUCUGCUGUAUACCUC", "self-cleavage": 0.03}
{"variant": "UAACAGGAGGCCACAGCAGAAGCGUUCACGUCGCAGCCCCUGUCUGAUUCUGGUGAAUCCGCGAAUUCUGCUGUAUAUCUC", "self-cleavage": 0.15}
{"variant": "UAACAGGAGGCCACAGCAGAAGCGUUCACGUCGCAGCCCCUGUCAGGUUCUAGGGAAUCUGCGAAUCCUGCUGUAUAUAUC", "self-cleavage": 0.09}
{"variant": "UAACAGGAGGCCACAGCAGAAGCGUUCACGUCGCAGCCCCUGUCAGGUUCUGGUUAAUCUGCGAAUUCUGCUGUAUAUCUC", "self-cleavage": 0.05}
{"variant": "UAACAGGAGGCCACAGCAGAAGCGUUCACGUCGCAGCCCCUGUCAGGUACUAGGGAAUCUGCGAAUCCUGCUGUAUAUAUC", "self-cleavage": 0.04}
{"variant": "UAACAGGAGGCCACAGCAGAAGCGUUCACGUCGCAGCCCCUGUCAGGUUCUGGUGAAUCUGCGAAUACUGCUGUAUAUCUC", "self-cleavage": 0.07}
{"variant": "UAACAGGAGGCCACAGCAGAAGCGUUCACGUCGCAGCCCCUGUCAGAUUCUGGUGGAUCUGCGGAUUCUGCCGUAUAUCUC", "self-cleavage": 0.08}
{"variant": "UAACAGGAGGCCACAGCAGAAGCGUUCACGUCGCAGCCCCUGUCAGAUUCUGGUGAGCCUGCGAAUUCUGCUGUAUAUCUC", "self-cleavage": 0.3}
{"variant": "UAACAGGAGGCCACAGCAGAAGCGUUCACGUCGCAGCCCCUGUCAGAUUCUGGUGAGUCAGCGAAUUGUGCUGUAUAUCUC", "self-cleavage": 0.03}
{"variant": "UAACAGGAGGCCACAGCAGAAGCGUUCACGUCGCAGCCCCUGUCAGAUUCUGGUGAGUCUGCGAAGUCUGCUGUAUACCUC", "self-cleavage": 0.16}
{"variant": "UAACAGGAGGCCACAGCAGAAGCGUUCACGUCGCAGCCCCUGUCAGAUUCUGGUGAAUCUGCGGAUUCUGCUGUAAAUCUC", "self-cleavage": 0.21}
{"variant": "UAACAGGAGGCCACAGCAGAAGCGUUCACGUCGCAGCCCCUGUCAGAUUCUGGUGAAUCUGCGGAUUCUGCUGUAUAUCCC", "self-cleavage": 0.06}
{"variant": "UAACAGGAGGGCACAGCAGAAGCGUACACGUGGCAGCCCCUGUCAGAUUCUGGUGAAUCUGCGAAUUCUGCUGUAUAUCUC", "self-cleavage": 0.04}
{"variant": "UAACAGGAGGGCACAGCAGAAGCGUUCACGUCGCAGCCCCUGUCAGAUUCUGGUGAAUCUGCGAAUUCUGCUGUACACCUC", "self-cleavage": 0.07}
{"variant": "UAACAGGAGGUCACAGCAGGAGCGUUCACGUCGCAGCCCAUGUCAGGUUCUGGUGAAUCCGCGAAUCCUGCUGUAUAUCUC", "self-cleavage": 0.04}
{"variant": "UAACAGGAGGUCACAGUAGAAGCGUUCACGUCGCAGCCCCCGUCAGAUUCUGGUGAAUCUACGUAUUCUGCUGUAUAUCUC", "self-cleavage": 0.05}
{"variant": "UAACAGGAGGUCACAGCAGAAGCAUCCACGUCGCAGCCCCUGCCAGAUUCUGGUGAAUCUGCGUAUUCUGCUGUAUAUCUC", "self-cleavage": 0.04}
{"variant": "UAACAGGAGGUCACAGCAGAAGCGCUCACGUCGCAGUCCCUGUCAGAUCCUGGUGAAUCUGCGAAUUCGGCUGUUUAUCUC", "self-cleavage": 0.03}
{"variant": "UAACAGGAGGUCACAGCAGAAGCGUUCACGUCGCAGCCCCCGUCAGAUUCUGCUGAUUCUGCGAAUUCUGCUGUAUCUCUC", "self-cleavage": 0.05}
{"variant": "UAACAGGAGGUCACAGCAGAAGCGUUCACGUCGCAGCCCCCGUCAGAUACUGGUGAAUCUGCGAAUUCUGCUGUAUAUCUC", "self-cleavage": 0.22}
{"variant": "UAACAGGAGGCAACGGGAGAAGCGUUCACGUCGCAGCCCCUGUCAGAUUCUGGUGAGUCUGCGAAUCCUGCUGUAUAUCUC", "self-cleavage": 0.05}
